# Assay results reported in PubChem BioAssay AID540317 (National Center for Advancing Translational Sciences (NCATS), 2011).
# In all, about 390,000 compounds went through this assay and about 2,200 (0.56%) were called active. Inconclusive results, whose numbers are uncertain, are shown with a selection of clear calls. The call rests on the fitted dose curve; in most records, active means well fitted inhibition curve with a large enough effect; inconclusive means small, poorly fitted or top-dose-only effect; inactive means no such curve, though single readings can be large or run the other way. Potencies beside an inconclusive call are fits to weak or partial responses and may not hold up.
# Target: Chromobox protein homolog 1 (Homo sapiens) (UniProt P83916)
# Chain of UniProt P83916 (P83916 whole entry, looked up): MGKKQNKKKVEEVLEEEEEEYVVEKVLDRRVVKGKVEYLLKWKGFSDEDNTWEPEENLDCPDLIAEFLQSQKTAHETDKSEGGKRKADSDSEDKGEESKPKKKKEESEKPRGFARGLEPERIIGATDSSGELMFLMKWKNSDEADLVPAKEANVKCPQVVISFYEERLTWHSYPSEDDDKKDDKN
# Assay: HTS for Inhibitors of HP1-beta Chromodomain Interactions with Methylated Histone Tails; further: nearly all actives have a fitted effect of over 70% in size
# Details: AlphaScreen HP1-beta / biotin-H3K9me3 peptide binding; series mostly up to 114 µM
# Method in brief: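 HP1-beta protein (50 nM final) preincubated 30 min at room temperature with biotinylated H3(1-18)K9me3 peptide (50 nM) in PBS pH 7.4, 0.01% Tween-20, then compound added for 30 min. AlphaScreen streptavidin donor/nickel chelate acceptor beads (10 ug/mL final), 30 min dark, luminescence read.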
# Potency means the concentration at half of the fitted maximal effect; tags describe the fitted curve by direction and shape.
row,SMILES,Potency
1,CCn1c(-c2ccccc2)csc1=Nc1ccc(O)cc1,"inconclusive: 44.7 µM [inhibitor, partial curve, poor fit]"
2,Cc1cc(C)c2nc(N(CCCN(C)C)C(=O)c3ccc4c(c3)CCCC4)sc2c1,"inconclusive: 44.7 µM [inhibitor, partial curve]"
3,NC(=O)CN1C(=O)C(=O)N(Cc2ccc(Cl)cc2)C1=O,inactive
4,CCc1ccc(C2=C(C)C(N3CCC(C(=O)Nc4ccc(F)cc4)CC3)=NS2(=O)=O)cc1,"inconclusive: 89.1 µM [inhibitor, partial curve, poor fit]"
5,COc1[nH]c(/N=C/c2ccco2)c(C#N)c1C#N,active: 22.4 µM
6,CCn1cc(CN2CCc3c([nH]c4ccccc34)C2c2ccc(F)c(OC)c2)c(C)n1 (centres undefined),"inconclusive: 39.8 µM [inhibitor, partial curve]"
7,COc1cc(NC(=O)CNC(c2ccccc2)c2ccccc2)cc(OC)c1OC,inactive
8,COc1ccc(NC2=C(C(C)=O)C(c3ccc4c(c3)OCO4)C(C(C)=O)C(C)(O)C2)cc1 (centres undefined),"inconclusive: 44.7 µM [inhibitor, partial curve, poor fit]"
9,COCC(=O)Nc1ccccc1Br,"inconclusive: 39.8 µM [inhibitor, single point]"
10,CCOC(=O)C1CCCCN1Cc1ccccc1C(F)(F)F (centres undefined),"inconclusive: 31.6 µM [inhibitor, single point]"
11,COc1ccc(C(=O)c2cc([N+](=O)[O-])ccc2N2CCCC2)cc1,"inconclusive: 35.5 µM [inhibitor, partial curve, poor fit]"
12,Cc1nc(NC(=O)c2ccc(Cl)cc2)sc1Cc1ccc2c(c1)OCO2,"inconclusive: 8.91 µM [inhibitor, full curve, poor fit]"
13,CC(/C=N/n1c(-c2ccc(C)cc2)n[nH]c1=S)=C\c1ccco1,"inconclusive: 22.4 µM [inhibitor, full curve, poor fit]"
14,COc1cccc(CNCCc2c[nH]c3ccccc23)c1OCc1ccccc1F,"inconclusive: 31.6 µM [inhibitor, partial curve, poor fit]"
15,N#Cc1nc(-c2ccccc2)oc1N1CCCCC1,inactive
16,CC1CN(C(=O)CCC(=O)N2CCCCC2)c2ccccc2O1 (centres undefined),inactive
17,COC(=O)c1ccc(C(=O)OC)c(NC(=O)CSc2cccc[n+]2[O-])c1,"inconclusive: 50.1 µM [inhibitor, partial curve]"
18,Clc1ccc(OCCCN2CCCCC2)c(Br)c1,"inconclusive: 56.2 µM [inhibitor, partial curve, poor fit]"
19,C/C(=C\c1ccccc1)CN1CCN(c2ccccc2)CC1,"inconclusive: 39.8 µM [inhibitor, partial curve, poor fit]"
20,Cc1cccc(NC(=O)CN2C(=O)S/C(=C\c3cc(C)n(C)c3C)C2=O)c1,inactive
21,Cc1ccc(B(O)O)cc1,inactive
22,CC(=O)Nc1ccc(NC(=O)c2ccc3c(c2)CCN3S(=O)(=O)c2ccc(Cl)cc2)cc1,inactive

row,SMILES,Potency
1,CC(C)CCNC(=O)C1CCN(Cc2cccc(OCc3ccccc3)c2)CC1,"inconclusive: 39.8 µM [inhibitor, partial curve]"
2,Oc1ccc(-c2csc(Nc3ccc4c(c3)OCO4)n2)c(O)c1,"inconclusive: 44.7 µM [inhibitor, partial curve]"
3,O=C(NCc1nnc(SCc2ccc(C(F)(F)F)cc2)n1-c1ccccc1)C12CC3CC(CC(C3)C1)C2,"inconclusive: 25.1 µM [inhibitor, single point]"
4,CSc1nnc2[nH]c(=O)cc(C)n12,inactive
5,CC(NC(=O)COC(=O)/C=C/c1ccco1)c1ccccc1 (centres undefined),"inconclusive: 70.8 µM [inhibitor, single point]"
6,COc1ccc(N=Nc2cc(C)c(O)c(CN3CCCCC3)c2)cc1,active: 28.2 µM
7,C[n+]1cnc(-c2ccccc2)cc1-c1ccccc1,"inconclusive: 79.4 µM [inhibitor, single point]"
8,Cc1ccccc1OCCN1CCC(Cc2ccccc2)CC1,"inconclusive: 20 µM [inhibitor, single point]"
9,O=C1Nc2ccccc2C1=Nc1ccc(F)cc1,"inconclusive: 89.1 µM [inhibitor, single point]"
10,O=C1c2ccccc2-c2n[nH]c(=O)c3ccc(N4CCCCC4)c1c23,"inconclusive: 44.7 µM [inhibitor, partial curve]"
11,CCN(CC)c1ccc(N2C(=O)CSC2=S)cc1,"inconclusive: 50.1 µM [inhibitor, single point]"
12,COc1cc(CN2CCCCC2)ccc1OCc1ccccc1,"inconclusive: 35.5 µM [inhibitor, partial curve]"
13,COC(=O)/C=c1\sc2ncnn2c1=O,"inconclusive: 89.1 µM [inhibitor, single point]"
14,Cc1ccc(NC(=O)CN(C)C(=O)c2ccc3[nH]c4c(c3c2)CC(C)CC4)cc1 (centres undefined),"inconclusive: 28.2 µM [inhibitor, full curve, poor fit]"
15,CCCC(=O)Nc1c2c(nn1-c1ccc([N+](=O)[O-])cc1)CS(=O)(=O)C2,inactive
16,CCNC(=S)N/N=C1\CCCCc2ccccc21,"inconclusive: 44.7 µM [inhibitor, partial curve]"
17,O=S(=O)(Cc1ccccc1)N=Nc1c(O)[nH]c2ccc(Br)cc12,"inconclusive: 28.2 µM [inhibitor, full curve]"
18,O=C(O)C1=CC[C@@H](c2ccc(Cl)cc2)N(S(=O)(=O)c2ccc(Cl)cc2)C1,inactive
19,O=C(CCCN1C(=O)c2cccc3cccc(c23)C1=O)N1CCN(c2ccccc2)CC1,"inconclusive: 70.8 µM [inhibitor, partial curve]"
20,S=c1[nH]nc(C2CCCCC2)n1/N=C/c1ccccc1Br,"inconclusive: 20 µM [inhibitor, full curve]"
21,COc1ccc(-n2c(/C=C/c3c(C)[nH]c4ccccc34)nc3ccccc3c2=O)cc1,inactive
22,Cc1ncc(CO)c(CNc2ccc(Oc3ccccc3)cc2)c1O,"inconclusive: 31.6 µM [inhibitor, partial curve, poor fit]"
